Data on 45 compounds can be found in publication PMC11995724, “Antibiotic target discovery by integrated phenotypic and activity-based profiling of electrophilic fragments” (Cell chemical biology, 2025).

About 110 (3.4%) of roughly 3,200 compounds showed an effect of 50% or more. The list shows a part of the results.

The subject of the experiment is T1, V. cholerae SAD30.
T1 construct: SAD30
Set-up: species or system S. aureus MSSA476 (TSB) or V. cholerae SAD30 (LB); 384-well bacterial growth screen at 25 uM, OD600 relative to DMSO control. The note with it: relative growth, OD600, LB; 25 µM; inhibitor.
Turning to `Cc1ccc(NC(=O)C(C#N)=Cc2cccc(F)c2)cc1` [8-F11, 2-cyano-3-(3-fluorophenyl)-N-(4-methylphenyl)prop-2-enamide], the “% of control remaining” value amounted to 65.0578%.

Turning to `Cc1cccc(CN(C(=O)CCl)C(C)C)c1` [6-J05, 2-chloro-N-[(3-methylphenyl)methyl]-N-(propan-2-yl)acetamide], the “% of control remaining” value is on record as 95.5541%.

In the case of `O=C(CCl)NS(=O)(=O)c1ccc(Cl)cc1` [4-E18, 2-chloro-N-(4-chlorobenzenesulfonyl)acetamide], the “% of control remaining” value stood at 99.8922%.

`Cc1ccc(N2CCN(C(=O)C(C)Cl)CC2=O)o1` (stereo not drawn) [7-A16, 4-(2-chloropropanoyl)-1-(5-methylfuran-2-yl)piperazin-2-one]: the “% of control remaining” value came to 80.0925%.

For the compound `CC(c1ccccc1F)N1CCCC(NC(=O)CCl)C1=O` (stereo not drawn) [5-I10, 2-chloro-N-{1-[1-(2-fluorophenyl)ethyl]-2-oxopiperidin-3-yl}acetamide], the “% of control remaining” value came out at 94.4836%.

As for `C=CC(=O)NCc1ccc(C(C)(C)C)[nH]c1=O` [3-P08, N-[(6-tert-butyl-2-oxo-1,2-dihydropyridin-3-yl)methyl]prop-2-enamide], the “% of control remaining” value is recorded as 110.969%.

For the compound `Cl.O=C(CCl)NC1CCN(c2ccncc2)CC1` [5-P09, 2-chloro-N-[1-(pyridin-4-yl)piperidin-4-yl]acetamide hydrochloride], the “% of control remaining” value amounted to 108.101%.

On to `CC(NC(=O)CCl)c1cc(C(F)(F)F)[nH]n1` (stereo not drawn) [5-P11, 2-chloro-N-{1-[5-(trifluoromethyl)-1H-pyrazol-3-yl]ethyl}acetamide], for which the “% of control remaining” value came to 106.252%.

For `CCC(NC(=O)CCl)c1nc(C)n[nH]1` (stereo not drawn) [5-O14, 2-chloro-N-[1-(3-methyl-1H-1,2,4-triazol-5-yl)propyl]acetamide], the “% of control remaining” value was 95.8285%.

`Cc1cc(C(=O)CCl)c(C)n1-c1ccccn1` [10-C16, 2-chloro-1-[2,5-dimethyl-1-(pyridin-2-yl)-1H-pyrrol-3-yl]ethan-1-one]: the “% of control remaining” value is on record as 41.1455%.

Regarding `O=C(CCl)NCCc1cccc2c1Oc1ccccc1O2` [7-J18, 2-chloro-N-[2-(oxanthren-1-yl)ethyl]acetamide], the “% of control remaining” value was 77.317%.

Regarding `C=CC(=O)N1CCC(C(=O)Nc2ccc(N(C)C(C)=O)cc2)CC1` [2-D08, N-[4-(N-methylacetamido)phenyl]-1-(prop-2-enoyl)piperidine-4-carboxamide], the “% of control remaining” value was 90.1959%.

For the compound `CCC(=O)N1CCc2cc(C(=O)CCl)ccc21` [10-C22, 1-[5-(2-chloroacetyl)-2,3-dihydro-1H-indol-1-yl]propan-1-one], the “% of control remaining” value is 119.54%.

For the compound `Cc1ccc(C=C(C#N)C(=O)Nc2nccs2)s1` [8-P13, 2-cyano-3-(5-methylthiophen-2-yl)-N-(1,3-thiazol-2-yl)prop-2-enamide], the “% of control remaining” value was 76.0707%.

Regarding `CC(=O)Nc1ccc(NC(=O)N2CCSSCC2)cc1` [10-J11, N-(4-acetamidophenyl)-1,2,5-dithiazepane-5-carboxamide], the “% of control remaining” value stood at 93.6684%.

Regarding `CC(Cl)C(=O)N1CCN(Cc2cc(=O)n3ccsc3n2)CC1` (stereo not drawn) [6-P17, 7-{[4-(2-chloropropanoyl)piperazin-1-yl]methyl}-5H-[1,3]thiazolo[3,2-a]pyrimidin-5-one], the “% of control remaining” value was 97.5258%.

As to `Cc1cc(NC(=O)CCl)c([N+](=O)[O-])cc1C` [4-F21, 2-chloro-N-(4,5-dimethyl-2-nitrophenyl)acetamide], the “% of control remaining” value stood at 103.515%.

For `Cc1ccc(NC(=O)C(C#N)=Cc2ccc(C(C)(C)C)cc2)cc1C` [9-E04, 3-(4-tert-butylphenyl)-2-cyano-N-(3,4-dimethylphenyl)prop-2-enamide], the “% of control remaining” value is 90.2107%.

Turning to `N#CC(=Cc1ccc(OC(F)F)c(Cl)c1)C(N)=O` [9-L12, 3-[3-chloro-4-(difluoromethoxy)phenyl]-2-cyanoprop-2-enamide], the “% of control remaining” value is recorded as 84.6363%.

Consider `COc1ccc2ccccc2c1-c1cc(CNC(=O)C(C)Cl)on1` (stereo not drawn) [7-E08, 2-chloro-N-{[3-(2-methoxynaphthalen-1-yl)-1,2-oxazol-5-yl]methyl}propanamide], for which the “% of control remaining” value is recorded as 61.8536%.

As for `C=CC(=O)N1CCN(c2nc3ccccc3o2)CC1` [1-K05, 1-[4-(1,3-benzoxazol-2-yl)piperazin-1-yl]prop-2-en-1-one], the “% of control remaining” value is reported as 92.6756%.

`CC(Cl)C(=O)NCCc1ccccc1` (stereo not drawn) [4-K14, 2-chloro-N-(2-phenylethyl)propanamide]: the “% of control remaining” value is reported as 95.0615%.

For the compound `C=CC(=O)NCCn1nnc2ccccc21` [2-N11, N-[2-(1H-1,2,3-benzotriazol-1-yl)ethyl]prop-2-enamide], the “% of control remaining” value is on record as 85.8728%.

As to `C=CC(=O)N1CCC(C(=O)N(CC)Cc2occc2C)CC1` [2-L08, N-ethyl-N-[(3-methylfuran-2-yl)methyl]-1-(prop-2-enoyl)piperidine-4-carboxamide], the “% of control remaining” value is reported as 90.3503%.

For the compound `CC(Cl)C(=O)NCc1cccc(N2C(=O)NC3(CCCC3)C2=O)c1` (stereo not drawn) [7-O18, 2-chloro-N-[(3-{2,4-dioxo-1,3-diazaspiro[4.4]nonan-3-yl}phenyl)methyl]propanamide], the “% of control remaining” value came to 81.6785%.

Take `CC(=O)Nc1ccc(C=C(C#N)C(=O)Nc2ccccc2Cl)cc1` [8-M11, N-(2-chlorophenyl)-2-cyano-3-(4-acetamidophenyl)prop-2-enamide]: the “% of control remaining” value is reported as 71.7199%.

`Cl.O=C(CCl)NC1CCN(Cc2ccccc2)CC1` [5-E19, N-(1-benzylpiperidin-4-yl)-2-chloroacetamide hydrochloride]: the “% of control remaining” value is 100.368%.

Consider `CC(Cl)C(=O)NCCc1cccs1` (stereo not drawn) [4-D14, 2-chloro-N-[2-(thiophen-2-yl)ethyl]propanamide], for which the “% of control remaining” value worked out at 102.308%.

Take `C=CC(=O)NCc1ccc(C(=O)N2CCC[C@@H]2C(N)=O)cc1` [3-L22, (2R)-1-{4-[(prop-2-enamido)methyl]benzoyl}pyrrolidine-2-carboxamide]: the “% of control remaining” value stood at 108.322%.

Consider `CC(Cl)C(=O)NC(C)c1nnc(-c2cccc(F)c2)s1` (stereo not drawn) [5-N15, 2-chloro-N-{1-[5-(3-fluorophenyl)-1,3,4-thiadiazol-2-yl]ethyl}propanamide], for which the “% of control remaining” value was determined as 95.6604%.

Regarding `C=CC(=O)NCc1cc(C2CC2)nn1C` [1-L10, N-[(3-cyclopropyl-1-methyl-1H-pyrazol-5-yl)methyl]prop-2-enamide], the “% of control remaining” value was determined as 107.458%.

As for `CCN1C(=O)CSC1=C(C#N)C(N)=O` [8-M09, 2-cyano-2-(3-ethyl-4-oxo-1,3-thiazolidin-2-ylidene)acetamide], the “% of control remaining” value was found to be 74.0313%.

For the compound `CCCn1c(C)cc(C=C(C#N)C(=O)Nc2cccc(F)c2)c1C` [8-L19, 2-cyano-3-(2,5-dimethyl-1-propyl-1H-pyrrol-3-yl)-N-(3-fluorophenyl)prop-2-enamide], the “% of control remaining” value is 76.4786%.

Consider `CN1c2ccccc2C(NC(=O)CCl)CS1(=O)=O` (stereo not drawn) [7-L04, 2-chloro-N-(1-methyl-2,2-dioxo-3,4-dihydro-1H-2lambda6,1-benzothiazin-4-yl)acetamide], for which the “% of control remaining” value was 88.9476%.

`N#CC(=Cc1cccc(Cl)c1Cl)C(=O)NCc1ccccc1` [8-L04, N-benzyl-2-cyano-3-(2,3-dichlorophenyl)prop-2-enamide]: the “% of control remaining” value was found to be 73.0795%.

With `Cc1cc(C(=O)C(C)Cl)c(C)n1-c1ccc(OC(F)F)cc1` (stereo not drawn) [10-E10, 2-chloro-1-{1-[4-(difluoromethoxy)phenyl]-2,5-dimethyl-1H-pyrrol-3-yl}propan-1-one], the “% of control remaining” value stood at 97.7206%.

For the compound `C=CC(=O)Nc1ccc2nc(O)n(C3CC3)c2c1` [2-K16, N-(1-cyclopropyl-2-hydroxy-1H-1,3-benzodiazol-6-yl)prop-2-enamide], the “% of control remaining” value is 86.7992%.

For `C=CC(=O)NC(C)c1cc2cnccc2o1` (stereo not drawn) [1-B08, N-(1-{furo[3,2-c]pyridin-2-yl}ethyl)prop-2-enamide], the “% of control remaining” value worked out at 100.343%.

In the case of `CC(NC(=O)CCl)c1cn(C)c2cc(Cl)ccc12` (stereo not drawn) [5-E11, 2-chloro-N-[1-(6-chloro-1-methyl-1H-indol-3-yl)ethyl]acetamide], the “% of control remaining” value stood at 94.8198%.

For the compound `CC(Cl)C(=O)N(C)C1CCS(=O)(=O)CC1` (stereo not drawn) [6-J21, 2-chloro-N-(1,1-dioxo-1lambda6-thian-4-yl)-N-methylpropanamide], the “% of control remaining” value came to 101.469%.

With `C=CC(=O)N1CCn2c(nnc2C(F)(F)F)C1` [1-D18, 1-[3-(trifluoromethyl)-5H,6H,7H,8H-[1,2,4]triazolo[4,3-a]pyrazin-7-yl]prop-2-en-1-one], the “% of control remaining” value stood at 101.325%.

As for `N#CC(=Cc1c[nH]nc1-c1ccccc1F)C(=O)Nc1ccccc1F` [8-H06, 2-cyano-N-(2-fluorophenyl)-3-[3-(2-fluorophenyl)-1H-pyrazol-4-yl]prop-2-enamide], the “% of control remaining” value is listed as 65.8736%.

Take `CC(Cl)C(=O)NCCc1cnc2c(Cl)cnn2c1` (stereo not drawn) [7-M18, 2-chloro-N-(2-{3-chloropyrazolo[1,5-a]pyrimidin-6-yl}ethyl)propanamide]: the “% of control remaining” value was 78.5065%.

With `C=CC(=O)NCc1ccc(OC)cc1` [1-K10, N-[(4-methoxyphenyl)methyl]prop-2-enamide], the “% of control remaining” value is 79.2227%.

As to `CNC(=O)C(C#N)=Cc1cccc(C)c1C` [9-D14, 2-cyano-3-(2,3-dimethylphenyl)-N-methylprop-2-enamide], the “% of control remaining” value is given as 82.189%.
